Measurements as given in PubChem BioAssay AID1508642 (National Center for Advancing Translational Sciences (NCATS), 2021).
Out of some 43,000 compounds screened, about 200 (0.47%) were called active. Not shown: some 12% with an inconclusive outcome. Calls follow the shape of the dose curve; as a rule, active = well fitted cell-killing curve with a large enough effect; inconclusive = small, poorly fitted or top-dose-only effect, or effect the other way; inactive = flat fitted curve, though single readings scatter. The list shows a part of the results.

experiment: Cell viability qHTS assay in S16 Pmp22-F2sN cells; conditions: S16 Pmp22-F2sN Schwann cells viability, CellTiter-Glo, 24 h; series mostly up to 57.5 µM; activity change, negative = cytotoxicity: at the top concentration; also: nearly all actives have a fitted effect of over 65% in size
How it was run: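 Used to flag compounds lowering reporter output through toxicity, this quantitative HTS measures ATP-based CellTiter-Glo luminescence in S16 Pmp22-F2sN Schwann cells after 24 h compound exposure at 37C.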
% is scaled to controls: 0 for no effect and ±100 for the full control effect; potency is read from the fitted curve at half-maximal effect.

| SMILES | activity change, negative = cytotoxicity | Potency |
| --- | --- | --- |
| CC(=O)Nc1c(C)nn(-c2ccccc2)c1N1CCC(C(=O)Nc2cc(Cl)ccc2C)CC1 | inactive: 6.13% | – |
| Cc1nnc(NC(=O)c2nc(S(=O)(=O)Cc3ccccc3)ncc2Cl)s1 | – | active: 5.01 µM |
| Cc1nc2c(-c3ccccc3)c(C)nn2c(C)c1CCC(=O)NCc1cccc(Cl)c1 | inactive: 18.7% | – |
| CCOc1ccc(NC(=O)C(C)Sc2nnc3cc(C)c4ccccc4n23)cc1 (configuration not stated) | inactive: 4.28% | – |
| CCOC(=O)C1CCCN(c2ncnc3c2cnn3-c2ccc(C)c(Cl)c2)C1 (configuration not stated) | inactive: 5.3% | – |
| Cn1c(=O)c2c(SCC(=O)NCc3ccco3)nc(-c3ccccc3Cl)nc2n(C)c1=O | inactive: 2.45% | – |
| Cc1ccc(NC(=O)CSc2nc3c(c(=O)[nH]2)CN(Cc2ccc4c(c2)OCO4)CC3)cc1C | inactive: 9.37% | – |
| CCOC(=O)c1ccc(NC(=O)c2oc3ccc4c(c3c2C)C(=O)CC(C)(CC)O4)cc1 (configuration not stated) | inactive: 2.13% | – |
| CC(C)c1ccc(CNCCSc2nnnn2C)cc1 | inactive: -9.79% | – |
| COc1ccc(C)cc1NC(=O)C(=O)NCCc1csc(-c2ccc(C)cc2)n1 | inactive: 2.35% | – |
| Cc1cccc(NC(=O)C(=O)NCC(c2cccnc2)N2CCOCC2)c1 (configuration not stated) | inactive: -1.04% | – |
| CCCOc1ccc(C2c3c(-c4ccccc4O)n[nH]c3C(=O)N2Cc2ccncc2)cc1OCC (configuration not stated) | inactive: -21.7% | – |
| COc1ccccc1C(=O)Nc1nc2ccc(S(=O)(=O)N3CCCC3)cc2s1 | inactive: -3.87% | – |
| NCCc1nnc(SCc2ccc(Cl)cc2)o1 | inactive: 11% | – |
| Clc1ccc(CCNc2ncnc3c2c(-c2ccccc2)cn3-c2ccccc2)cc1 | inactive: -11.2% | – |
| COc1ccc(C(=O)CN2C(=O)N(c3cc(C)cc(C)c3)S(=O)(=O)c3ccccc32)cc1 | inactive: 2.05% | – |
| Cc1ccccc1CS(=O)(=O)Cc1ccc(C(=O)NCCc2ccccc2)o1 | inactive: -5.8% | – |
| CCOC(=O)c1ccc(Nc2c(-c3ccc(O)cc3)nc3nc[nH]n23)cc1 | inactive: -25.9% | – |
| COc1cc(C(=O)Nc2cc(C)ccc2OCc2cc(=O)n3cc(C)sc3n2)cc(OC)c1OC | inactive: -0.141% | – |
| CCCCC(=O)Nc1cccc(OCc2cc(=O)n3ccccc3n2)c1 | inactive: 1.16% | – |
| Cc1ccc(Nc2c(-c3ccc(C)cc3)nc3cnccn23)cc1 | inactive: -20.8% | – |
| COc1ccccc1CNC(=O)Cn1ncc2c(=O)oc3ccc(C)cc3c21 | inactive: 0.751% | – |
| CCCn1c(=O)n(-c2ccccc2)c(=O)c2sc3ccccc3c21 | inactive: 7.64% | – |
| CN(C(=O)CCNC(=O)Cn1cnc2ccccc2c1=O)c1ccccc1F | inactive: 9.82% | – |
| CCOc1ccc(CCNC(=O)CN2CCN(Cc3ccc(F)cc3Cl)C2=O)cc1OCC | inactive: 11.8% | – |

| SMILES | activity change, negative = cytotoxicity | Potency |
| --- | --- | --- |
| COc1cccc(-c2nc3c(c(SCc4ccccc4)n2)Cc2c(CO)cnc(C)c2O3)c1 | inactive: 12.1% | – |
| NC(=O)c1cc(S(=O)(=O)NCc2ccccc2)cs1 | inactive: 0.797% | – |
| C=Cc1ccc(CSc2nc(-c3ccc(OC)cc3)nc3c2Cc2c(CO)cnc(C)c2O3)cc1 | inactive: -14.2% | – |
| CCOC(=O)CSc1nc2cc3c(cc2c(=O)n1CCCC(=O)NCc1ccc2c(c1)OCO2)OCO3 | inactive: 14.6% | – |
| Cc1ccc(NC(=O)CN2CCCN(Cc3cc(C)ccc3C)S2(=O)=O)c(Cl)c1 | inactive: -18.9% | – |
| COc1cccc(N2CCN(C(=O)C3CCC(CNS(=O)(=O)c4ccc(Br)s4)CC3)CC2)c1 (configuration not stated) | inactive: -17.1% | – |
| COCCCNC(=O)Cn1c(=O)n(-c2ccc(C)cc2)c(=O)c2c1c1cc(C)ccc1n2C | inactive: -2.36% | – |
| CCS(=O)(=O)N1CC(=O)N(c2ccccc2C)C(C)(C(=O)NC2CCCCC2)C1 (configuration not stated) | inactive: -3.97% | – |
| CN(C)c1ccc(C(CNC(=O)COc2ccc(Cl)cc2)N2CCOCC2)cc1 (configuration not stated) | inactive: 11.4% | – |
| Cc1ccc(Cl)cc1N1CCN(C(=O)c2cn(C3CCCCC3)c(=O)c3c2c2ccccc2n3C)CC1 | inactive: 1.22% | – |
| CC(C)(C)NS(=O)(=O)c1ccc2nc(NC(=O)c3cccnc3)sc2c1 | inactive: -0.533% | – |
| COC(=O)CNC(=O)Nc1cc(C(=O)NCc2ccc(C)cc2)ccc1N1CCCC1 | inactive: 1.74% | – |
| COc1cc(C2NC(=O)NC(C)=C2C(=O)Nc2cc(C)cc(C)c2)ccc1O (configuration not stated) | inactive: 11.4% | – |
| CCOC(=O)c1c(C)c(-c2ccccc2)n(CC(=O)Nc2cc(OC)cc(OC)c2)c1C | inactive: -21.7% | – |
| CC(C)(C)c1cc(C(C)(C)C)c2oc(=O)c(-c3nc4ccccc4[nH]3)cc2c1 | inactive: 13.8% | – |
| O=C(CSc1nc2ccccc2c2nc(-c3ccccc3)nn12)Nc1ccc(Br)cc1 | inactive: 3.98% | – |
| Cc1ccc(Cn2c(SCC(=O)NCc3ccc(Cl)cc3)nc3ccsc3c2=O)cc1 | inactive: 21.7% | – |
| CCc1cc(C(=O)Nc2c(C)nn(Cc3ccc(C)cc3)c2C)no1 | inactive: -9.57% | – |
| COC(=O)C1CCN(S(=O)(=O)c2cc3c4c(c2)C(C)C(=O)N4CCC3)CC1 (configuration not stated) | inactive: -4.29% | – |
| CC(=O)N1c2ccccc2CC1C(=O)N1CCN(c2ccc(F)cc2)CC1 (configuration not stated) | inactive: -0.955% | – |
| COc1ccc(C)cc1NC(=O)c1oc2ccc(S(=O)(=O)N(C)C3CCCCC3)cc2c1C | inactive: -0.756% | – |
| O=C(Nc1ccc(F)cc1F)c1ccc(CN2CC(=O)N3CCCCC3C2=O)cc1 (configuration not stated) | inactive: 2.78% | – |
| CCOc1ccccc1CNC(=O)Nc1cn(CC(C)C)c(=O)c2ccccc12 | inactive: -11.5% | – |
| Cc1ccc(OCc2nc3ccccc3n2CC(C)C)cc1 | inactive: -0.594% | – |
| COc1ccc(CCNC(=O)CCn2c(=O)c3cccn3c3ccc(F)cc32)c(OC)c1OC | inactive: 5.71% | – |

| SMILES | activity change, negative = cytotoxicity | Potency |
| --- | --- | --- |
| COc1ccc(N(CC(=O)NC(C)c2ccccc2)S(=O)(=O)c2c(C)noc2C)cc1 (configuration not stated) | inactive: -0.536% | – |
| CCCN(C(=O)c1cc2c(s1)-c1ccccc1SC2)c1ccccc1F | inactive: -5.06% | – |
| CC1(c2ccc(Cl)cc2)CC(C)(C)N(C(=O)c2ccccc2)c2ccccc21 (configuration not stated) | inactive: -28.6% | – |
| CC(Oc1ccccc1)C(=O)Nc1nc2ccc(S(N)(=O)=O)cc2s1 (configuration not stated) | inactive: -15% | – |
| Cc1cc2c(cc1S(=O)(=O)NCc1ccc(N(C)C)cc1)OCC(=O)N2 | inactive: 0.488% | – |
| COc1cccc(-n2ccnc2SCC(=O)Nc2cccc(C)c2C)c1 | inactive: 7.87% | – |
| COc1ccc(-n2ncc(C(=O)NCc3ccccc3)c2C2CCN(C(=O)OC(C)(C)C)CC2)cc1 | inactive: -22.8% | – |
| CCc1ccc(NC(=O)Cn2cnc3sc(C)c(S(=O)(=O)N4CCC(C)CC4)c3c2=O)cc1 | inactive: -9.13% | – |
| CCCC(=O)NCC(c1ccc2c(c1)OCO2)N1CCN(c2ccc(F)cc2)CC1 (configuration not stated) | inactive: -0.238% | – |
| O=c1c2c3c(sc2nnn1Cc1ccc(Br)cc1)CCCC3 | inactive: 4.16% | – |
| CCOc1ccccc1NC(=O)Cn1c(=O)ccc2cc(S(=O)(=O)N3CCC(C)CC3)ccc21 | inactive: -12.2% | – |
| CCOC(=O)c1ccc(NC(=O)CCc2c(C)nc3c(c(C)nn3C)c2C)cc1 | inactive: 4.41% | – |
| CC(=O)c1ccc(N2CCN(C(=O)C3CCN(S(=O)(=O)c4cccc5nonc45)CC3)CC2)cc1 | inactive: 3.47% | – |
| O=C(c1cc2ccccc2oc1=O)N(Cc1cccc(Cl)c1)C1CCS(=O)(=O)C1 (configuration not stated) | inactive: 1.71% | – |
| CCOC(=O)C1CCN(C(=O)C2COc3ccccc3C2)CC1 (configuration not stated) | inactive: -1.22% | – |
| Cc1ccc(OCCCn2c(C3CC(=O)N(c4cccc(Cl)c4)C3)nc3ccccc32)c(C)c1 (configuration not stated) | inactive: -12.3% | – |
| CCOc1ccc(CNC(=O)c2ccc3nc(Cc4ccc(OC)cc4)oc3c2)cc1OC | inactive: -9.03% | – |
| CCOC(=O)c1ccc(NC(=O)CC2C(=O)N(c3ccccc3)C(=O)N2Cc2cccs2)cc1 (configuration not stated) | inactive: -1.44% | – |
| Cc1ccc2c(CNCCc3ccc(Cl)cc3)c(C(=O)O)n(Cc3ccc(F)cc3)c2c1 | inactive: -1.86% | – |
| COc1ccc(N2CCN(CC(O)COc3ccc(C(C)(C)C)cc3)CC2)cc1 (configuration not stated) | inactive: 0.658% | – |
| Cc1ccc(S(=O)(=O)c2[nH]c(-c3ccccc3)nc2SCC(=O)O)cc1 | inactive: -2.58% | – |
| CC(C)Cc1nn2c(=O)cc(COC(=O)c3ccc(NC(=O)c4cccs4)cc3)nc2s1 | inactive: -1.17% | – |
| CCN(C(=O)Cc1c(C(=O)O)[nH]c2ccccc12)c1ccc(OC)cc1 | inactive: -4.27% | – |
| Cc1ccc(Cl)cc1NC(=O)c1ccc(-c2nc(CSc3ccccc3)c(C)o2)cc1 | inactive: -25.4% | – |
| CCc1ccc(CN(C(=O)c2nc(SC)ncc2Cl)C2CCS(=O)(=O)C2)cc1 (configuration not stated) | inactive: -4.35% | – |

| SMILES | activity change, negative = cytotoxicity | Potency |
| --- | --- | --- |
| CCC(=O)N1c2ccccc2CC1C(=O)N1CCN(c2ccccc2)CC1 (configuration not stated) | inactive: 9.45% | – |
| Cc1noc(-c2ccccc2OCC(=O)Nc2cccc([N+](=O)[O-])c2)n1 | inactive: 12% | – |
| Cc1ccccc1NC(=O)CC1C(=O)NCCN1C(=O)c1cccc(Cl)c1 (configuration not stated) | inactive: 17.4% | – |
| COC(=O)CCc1sc(Nc2ccc(OC)cc2)nc1-c1ccc(OC)cc1 | inactive: 7.09% | – |
| CC(=O)c1ccc(N2CCN(C(=O)NCc3noc4ccc(C)cc34)CC2)cc1 | inactive: 1.68% | – |
| CCOC(=O)c1ccccc1NC(=O)CSc1nc2ncccc2[nH]1 | inactive: 9.17% | – |
| CCN1c2ccccc2-c2nc(SCC(=O)Nc3ccc(C)c(Cl)c3)ncc2S1(=O)=O | inactive: 1.77% | – |
| COc1ccc(N2CCN(C(=O)CCS(=O)(=O)c3cc4c(cc3Cl)NC(=O)CO4)CC2)cc1 | inactive: 15% | – |
| CC(=O)c1cc(C(=O)Nc2cccc(C)c2)c2ccccn12 | inactive: 6.27% | – |
| COc1ccc(-c2nnn3c2nc(N2CCCC(C)C2)c2ccccc23)cc1 (configuration not stated) | inactive: 3.54% | – |
| Cc1ccc(C)c(N(C)C(=O)C2CCN(S(=O)(=O)c3cccc4nsnc34)CC2)c1 | inactive: 1.08% | – |
| CCOC(=O)C1CCCN(S(=O)(=O)c2ccc3[nH]c(=O)ccc3c2)C1 (configuration not stated) | inactive: -0.23% | – |
| Cc1ccc(S(=O)(=O)NCc2nc3nc(C)cc(C)n3n2)c(C)c1 | inactive: -0.751% | – |
| Cc1ccc(NC(=O)c2cc(S(=O)(=O)N3CCOCC3)c(Cl)cc2Cl)cc1 | inactive: -13% | – |
| COCCNC(=O)CCC(=O)NNc1nc2ccccc2c2nc(-c3ccccc3)nn12 | inactive: 14.4% | – |
| Clc1ccccc1-c1nc(Nc2ccccc2)nc2ccc(Br)cc12 | inactive: -1.51% | – |
| CCOc1ccc(NC(=O)CSc2ncc3c(n2)-c2ccccc2N(C)S3(=O)=O)cc1 | inactive: 10.5% | – |
| CCc1ccc(CNC(=O)c2ccc(CSc3nc4ccncc4n3Cc3ccccc3)cc2)cc1 | inactive: -20.8% | – |
| CCC(Oc1ccccc1)C(=O)Nc1nnc(S(=O)(=O)Nc2ccccc2)s1 (configuration not stated) | inactive: -2.03% | – |
| Cc1cc(C)cc(NC(=O)C2CCN(S(=O)(=O)c3cccc4nonc34)CC2)c1 | inactive: 1.85% | – |
| COc1ccc(CNC(=O)Nc2cn(CC(C)C)c(=O)c3ccccc23)c(OC)c1 | inactive: -4.81% | – |
| Cc1oc2cc3oc(=O)c(CC(=O)NCc4ccccc4)c(C)c3cc2c1C | inactive: 0.206% | – |
